PubChem BioAssay AID1745853 (National Center for Advancing Translational Sciences (NCATS), 2022)
The other results are listed elsewhere or left out. These are further read-outs of the screen, such as a control signal, another cell line or another target. No call is given for them.

How the values were obtained:
Assay in all cases: Primary Screen for Target Class Profiling of Small Molecule Inhibitors of Methyltransferases
[1] = biological target: Glycine N-methyltransferase (Homo sapiens) (UniProt Q14749); settings: purified enzyme, MTase-Glo SAH luminescence; measured here: GNMT inhibition; at 40 µM; stronger effect = lower value
Method in brief: (§1)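 Each enzyme was assayed with SAM and its substrate. SAH formation detected by MTase-Glo luminescence; single-point 40 uM screen[…].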

[2] = biological target: Histamine N-methyltransferase (Homo sapiens) (UniProt P50135); settings: purified enzyme, MTase-Glo SAH luminescence; measured here: HNMT inhibition; at 40 µM; stronger effect = lower value
Method in brief: as §1

[3] = biological target: Guanidinoacetate N-methyltransferase (Homo sapiens) (UniProt Q14353); settings: purified enzyme, MTase-Glo SAH luminescence; measured here: GAMT inhibition; at 40 µM; stronger effect = lower value
Method in brief: as §1

[4] = biological target: Nicotinamide N-methyltransferase (Homo sapiens) (UniProt P40261); settings: purified enzyme, MTase-Glo SAH luminescence; measured here: NNMT inhibition; at 40 µM; stronger effect = lower value
Method in brief: as §1

[5] = biological target: Phenylethanolamine N-methyltransferase (Homo sapiens) (UniProt P11086); settings: purified enzyme, MTase-Glo SAH luminescence; measured here: PNMT inhibition; at 40 µM; stronger effect = lower value
Method in brief: as §1
% is scaled to controls: 0 for no effect and ±100 for the full control effect.

Structure (SMILES) | activity change, negative = inhibition [1] | activity change, negative = inhibition [2] | activity change, negative = inhibition [3] | activity change, negative = inhibition [4] | activity change, negative = inhibition [5]
C[C@@H]1C(=O)O[C@H]2[C@@H](O)C34[C@H]5C[C@@H](C(C)(C)C)C36[C@@H](OC(=O)[C@@H]6O)O[C@@]4(C(=O)O5)[C@@]12O (stereo partly specified) | -5.17% | -1.53% |  |  | 
COc1c(O[C@@H]2O[C@H](CO)[C@@H](O)[C@H](O)[C@H]2O)c(CCC(=O)O)cc2ccoc12 | 24% | 20.2% | 41% | 25.9% | 8%
CN1C(=O)c2cc(C(=O)NCCc3ccc(Cl)cc3)nn2CC1(C)C(=O)NC1CCCCC1 (stereo unspecified) | 5.14% | 5.4% | 0% | 8.69% | 5.11%
CC(C)C1(O)C=C2C(=O)CC3C(C)(C(=O)O)CCCC3(C)C2CC1 (stereo unspecified) | 0.179% | 11.9% | -0.72% | -12.3% | -9.29%
CC(C)NC(=O)c1ccc2c(=O)n(C(C)C)c3n[nH]c(=O)n3c2c1 | -1.66% | 2.62% | 3.27% | 10.5% | -3.61%
C=CCN(C(=O)Cn1c(=O)oc2cc(S(=O)(=O)N3CCCC3)ccc21)c1ccccc1 | -1.41% | -3.23% | 7.45% | 4.05% | -6.32%
C#C[C@]1(OC(C)=O)CC[C@H]2[C@@H]3CCC4=C[C@@H](OC(C)=O)CC[C@@H]4[C@H]3CC[C@@]21C | -5.53% | 8.84% | -18.7% | -18.9% | -0.556%
CC(C)[C@H](C(=O)Nc1ccc(C(=O)NO)cc1)c1ccccc1 | -3.91% | 9.02% |  | -23.5% | -13.5%
Cc1ccc(CNC(=O)CCc2nnc3n(CCCOC(C)C)c(=O)c4ccccc4n23)cc1 | -7.58% | -2.72% | -3.69% | 0.064% | -8.9%
CN1C(=O)c2cc(C(=O)NC3CCCC3)nn2CC1(C)C(=O)NC1CCCCCC1 (stereo unspecified) | 6.07% | 5.96% | 0% | 11.1% | 3.41%
CC1(C)C[C@H]2C=C(C=O)[C@]3(C(=O)O)C[C@]3(C)[C@H]2C1 | -8.82% | -1.54% | -9.45% | -21% | -17.9%
CC(C)CS(=O)(=O)N[C@H](C)c1onc(-c2ccc(F)cc2)c1C(=O)O | -0.477% | 1.41% | -2.11% | -1.73% | 0.554%
CC(C)CCn1c(=O)c2ccc(C(=O)NCC(C)C)cc2n2c(=O)n(CC(=O)Nc3ccccc3)nc12 | 1.22% | 7.66% | 0% | -3.6% | 2.93%
CC(C)CCNC(=O)C1(C)Cn2c(ccc2-c2ccco2)C(=O)N1Cc1ccccc1 (stereo unspecified) | -8.55% | -4.15% | 0.999% | -8.05% | -5.8%
Oc1cc(-c2nc(-c3ccccc3)[nH]c2-c2ccncc2)ccc1Cl | -24.1% | -17.1% | -8.31% | -42.7% | -17.2%
CC(C)Cn1c(=O)c2ccccc2n2c(CCC(=O)NC(C)c3ccccc3)nnc12 (stereo unspecified) | 2.38% | 8.58% | 1.41% | 7.18% | 2.03%
COc1ccc(-c2nnc3n(Cc4ccc(C)cc4)c(=O)c4ccccc4n23)c(O)c1 | -18% | -0.11% | -2.42% | -8.89% | -11.5%
COc1cccc(C2c3cccn3-c3sc4c(c3CN2C(=O)Nc2ccccc2C)CCCC4)c1 (stereo unspecified) | 1.38% | 1.4% | 0.598% | -1.81% | 5.97%
COc1ccc([C@H]2C[C@@H](O)[C@@H](O)[C@@H]2NC(=O)C(C)C)cc1 | 0.251% | 3.22% | 0.738% | -4.67% | -0.037%
CCc1cc(CC[C@]2(C3CCCC3)CC(O)=C(Cc3nc4nc(C)cc(C)n4n3)C(=O)O2)cc(CC)n1 | 7.17% | 7.55% | -0.627% | -20.7% | -2.88%
Cc1ccc(-n2cc(CN3CCN4CCCC4C3)c(-c3cccc(C)c3)n2)cc1 (stereo unspecified) | -9.1% | -22.8% | -7.22% | -5.89% | 7.94%
COc1ccc(CCN2C(=O)c3cc4occc4n3CC2(C)C(=O)NC2CCC(C)CC2)c(OC)c1 (stereo unspecified) | -11.6% | -6.48% | 4.2% | -13.2% | -5.64%
Nc1[nH]nc2nc3ccccc3nc12 |  |  | 3.33% | -17% | -4.85%
COc1ccc(CCNc2ncnc3c2CN(c2ccc(C)cc2)C(=O)CN3C)cc1 | -28.4% | -3.81% | -6.14% | -29.6% | -11.8%
O=c1[nH]c2cccc(N3CCN(Cc4ccc(-c5ccccc5)cc4)CC3)c2o1 | -2.12% | 6.56% | -6.91% | -32.9% | -10.6%
CN(C)C(CCOc1cccc2ccccc12)c1ccccc1 (stereo unspecified) | 0.195% | -18% |  |  | 
CC(C)CNC(=O)CN1CCOc2c(O)cc(-c3cccc(Cl)c3)cc2C1 | -12.1% | -16.6% | -5.65% | -19% | -1.04%
C=C1C(=O)O[C@@H]2C3=C(C)CCC[C@]3(C)CC[C@@]12O | 4.09% | 13% | 6.01% | -9.78% | 6.44%
CC(C)Cn1c(=O)c2ccccc2n2c(SCC(=O)Nc3ccc(C(C)C)cc3)nnc12 | -0.88% | 9.81% | 2.21% | -6.52% | 1.95%
CN1c2c(nc(N)[nH]c2=O)NC[C@@H]1CNc1ccc(C(=O)N[C@@H](CCC(=O)O)C(=O)O)cc1 | -4.35% | 8.58% | -16.8% | -16.3% | -1.84%
